# Sequences with one replicate were seen in a single cluster, so their values are uncertain.
# System: ATP
# Assay: switch fluorescence ratio, 500 uM ATP over buffer (Cy3 cluster intensity, sum of 5 cycles each) (fold (ratio)); higher = stronger signal-on switching upon ATP binding; sequences stand for … in TCGTCGGCAGCGTCAGATGTGTATAAGAGACAGTTTTTTTTTTTTTTTTTTTTTTTTT…TC
# Conditions: aptamer strand: ATP DNA aptamer (quencher-CACCTGGGGGAGTATTGCGGAGGAAGG + anchor), 100 nM annealed; ATP concentration: 500 uM; one replicate
# Method in brief: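 After annealing to 100 nM quencher-labelled ATP aptamer, Cy3-labelled switching-strand clusters on a modified Illumina MiSeq flow-cell were imaged in selection buffer. A second image followed after 15 min with 500 uM ATP at 22 °C, and five such buffer/ATP cycles were done, each separated by NaOH stripping and re-annealing. The fluorescence ratio, averaged per switch-domain sequence, is summed target-cycle over summed buffer-cycle Cy3 intensity per cluster, with clusters outside 100-1000 RFU excluded.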
# 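Note: ATP exposure 15 min at 22 °C before imaging.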
row,Sequence,switch fluorescence ratio
1,GAAAACGGG,1.04
2,TACTTGTTCC,1.06
3,TAAAAGAATG,0.992
4,ACGAGCTTCG,0.983
5,CGGCGCATG,1.35
6,CACCGGGGTC,1.05
7,TGGGCAATGA,1.34
8,AGAAGAGAGT,0.96
9,CATTGTGTAG,1
10,GGGAATAATT,1.02
11,GTAGGGATCG,1.01
12,ATAAATTTTG,1.06
13,GTCTCACGTT,0.983
14,TCGAGCATTT,1.26
15,AAGTCATTT,0.973
16,GGTTTTACT,1.01
17,TTATGTTTGA,0.96
18,AAATTTCTA,0.993
19,GCCCTAGGTT,1.18
20,TATGTGCTCG,1.03
21,AGGACAGAGG,1.07
22,GGGGCTCCGA,0.985
23,CATGTAAGC,1.02
24,TTGGAGAATC,1
25,GGATGGGCAG,1.01
26,ATACGGTGTC,0.931

row,Sequence,switch fluorescence ratio
1,CAACGCGCAC,2.6
2,CTTCACGCTG,1.07
3,CGTGTGTAAA,1.06
4,TGATAGGAGT,0.99
5,TAAGGATGTG,1.01
6,TTATGGCTAC,1
7,GCTCTTCGTA,1.02
8,GAATCCATGG,0.997
9,ACAAAACCGC,1.24
10,ACAGCAGGG,1.01
11,GGAGGTCTCG,0.995
12,TTCAGATTCA,0.949
13,GTAGTAGTCG,0.921
14,AGGTTTACGC,0.978
15,TTGTGTACGC,1.02
16,TTGTCGATTT,1.08
17,TACGGGGAAG,1.04
18,CGGTCGAATG,0.985
19,TTAGCCGGTA,0.975
20,TGCGTTACGG,1.02
21,AAGGTGTAAG,1.03
22,TGAAAACCTG,1.01
23,CTAAGGGGCG,1.05
24,ATTTACATTC,1.03
25,GTTAACGCCC,1.03
26,ATGGGTGGA,1.03

row,Sequence,switch fluorescence ratio
1,AATGCCTAGG,1.03
2,GAGTTCTTCT,1.02
3,TAGTAGGAGA,1.03
4,TCACTGAATA,1.03
5,CCGCCCCCTG,2.2
6,TGAACTCTGA,0.989
7,TGTCATAGCA,1.02
8,AGCTCGAGAG,0.988
9,CGGTTAAAGA,1
10,AGTTCCAAT,0.982
11,GATTAACTA,0.974
12,GAATTCTCGA,0.98
13,TGCGAGAGTA,0.991
14,ATGTCTGAAA,0.997
15,TTTAGTGCAC,1.03
16,TTTACCTCG,1.15
17,ATGACTGAGA,0.978
18,GGTCGAGTTA,1.02
19,ATTCGGAAAC,1.22
20,ACCTCTTCCG,2.98
21,AATCGTAAAA,0.974
22,CAGTGTTAGT,0.993
23,ACGTAAGATC,1.13
24,ATACGTGGCG,1.04
25,ACGCTGTCGT,1.01
26,CAAAGGTCTT,1.06

row,Sequence,switch fluorescence ratio
1,TGATGGGAGG,1.02
2,CCGAACAGGT,1.06
3,TCGTACAATT,1.03
4,ACTACGGCAC,2.15
5,TATGGTCCCT,1.05
6,TATACATATT,1.05
7,ATCTTGTACC,1.05
8,CCAGCGGCTT,1.02
9,GCCACCAGC,1.04
10,CGTGGGTCTG,0.996
11,CGGGAACATC,1.01
12,CAAAAGAATT,0.984
13,TATTGGGGC,1.03
14,AGCGCGGCGT,0.976
15,TATAGCTCTG,0.952
16,AGTGCTATTG,0.985
17,CACCGGACGG,1.05
18,ATGATATGAG,1.01
19,TCTATCGCCA,1.11
20,AGGCATTCAA,1.04
21,ATGGCGGACT,0.943
22,TATTCACATC,0.977
23,GGGAATGCGA,1.02
24,AGGCTTTAGG,0.993
25,GGGTTTAAGA,1.02
26,CCAAGCGCGC,0.96

row,Sequence,switch fluorescence ratio
1,TTTACTTGT,1.01
2,GCATACAACT,1.03
3,TCGGTGAGGA,1.03
4,AGGAGTATCT,0.972
5,GTTTGAGTGA,1.01
6,ACTGCTCCTT,1.03
7,CTTCTGCGTT,1.03
8,AATCTGAGTC,1.01
9,ATAATAATCA,0.977
10,ATCAGTCGCT,0.973
11,TTGTGACTTA,0.989
12,GGAGGTGCG,0.999
13,CCATGTATC,0.996
14,ACCTCCGGGG,1.1
15,GAAGGGATCG,1.01
16,AAAGTAGGCA,0.985
17,CTCAAGTGAT,1.06
18,CTGTATACTA,1.03
19,TGGTCCCGCG,0.977
20,TTACATTTCC,1.05
21,ACGAGTCTAT,1.04
22,AGAAGCAACC,1.86
23,CGCGAAGTAG,1.01
24,ACGCCTGGTA,1.02
25,TCTAGGTCCC,1.02
26,GGAACATGGT,0.929

row,Sequence,switch fluorescence ratio
1,GAACTCTCGA,1.02
2,TGAGTGTATG,0.995
3,CCATGTCGA,1.01
4,CGACATATAT,1.16
5,ACACCTAGCA,1.07
6,GCTTCGCACG,1.53
7,GTGGGTGATG,0.989
8,TCATACCGGA,1
9,ACTTCCGTTG,1.59
10,AAATTCCATA,0.994
11,CTAATGATA,1.07
12,AGCATTAAGC,0.954
13,AATATACATA,1.08
14,CTATTTAGGA,0.982
15,TGCGGAGCGA,1.38
16,ATGGTAGTA,0.964
17,ACTCGGTAGC,1.09
18,CAATTCCTAA,1
19,AGACGTCGCC,0.989
20,AATTTACTCG,1.02
21,AGAAACCGCT,1.29
22,ACAAGTAGGT,1.02
23,ACGAGGTTAC,1.06
24,CAAATTCTCC,1.11
25,GCTTGTATAG,0.997
26,CCCCACAGCT,1.22

row,Sequence,switch fluorescence ratio
1,ATGGGTAGA,1.01
2,CCAAATCGAT,0.98
3,GGCGCAACGC,1.24
4,GGCGCTCAGA,1.03
5,TCTATGTTTT,0.981
6,CGTGTCGAAA,1.02
7,GGGTGGGTTC,0.97
8,TGACCCCGGA,1.03
9,ACTTGTGTTT,0.978
10,GTCCTAAATA,1.04
11,ATACAGAGGA,0.98
12,CAAAAGGTAT,1.01
13,GCGATCATCC,1.21
14,TGGGAGTGTC,1.03
15,ACCGTGGGTT,0.992
16,AGGGGCATGA,0.987
17,AATAGTAGAT,0.975
18,TAAAGATGTG,0.975
19,TTACTAGCTG,1.06
20,CCTAGGGAAT,1.1
21,TACTGTGCTT,0.999
22,ACCGTGCGTT,0.997
23,CTAAGACCGA,0.997
24,GTAGGGTAGG,0.992
25,CGTGGCTTAG,0.957
26,GTGGAATGCC,0.975

row,Sequence,switch fluorescence ratio
1,AGGGGAAACG,0.954
2,CATCTACATC,1.06
3,GATGTCAT,1.01
4,AATGATTTAG,0.985
5,AGGCGGGAT,1.02
6,GAACTGAGTA,1
7,CGAGGGGTCG,1.03
8,GGGATCCACG,1.01
9,AGGGGTAGAC,0.956
10,AACTGGACTG,1.1
11,CTTTCCAAAC,1.41
12,TTTGCCATC,1.12
13,AGCTCCTTAA,1.31
14,CTTTTTGAGA,1.02
15,GCATCCGGGG,0.969
16,TTGAGGACTT,1.01
17,CATATTTCAG,1
18,CGCTTCTTCA,1.03
19,GTAAGACCAA,0.995
